Data published in PubChem BioAssay AID602340 (Broad Institute, 2012).
Several values for one entry are separate records, joined by “and”; a condition that tells them apart may be missing. Equal values may be shown once. In all, about 330,000 compounds went through this assay and about 2,600 (0.79%) were called active. This list was built around the results that the source calls inconclusive (neither active nor inactive); the mix of calls is not that of the screen.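 Rule for the calls: active = mean ATP rescue above about 67%, or every replicate alone reaching that limit (limit read from the data, passing the limit was not always enough); inconclusive = no clear call, values can overlap the other calls; inactive = mean under the limit and some replicate under it.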

assay: suppressors of statin myotoxicity in C2C12 myotubes, primary screen, cell-based, single point, plate reader (AID 602340); details: C2C12 myotubes + simvastatin, ATP luminescence, 48 h; at 7.49 µM; hits give high values; scaled: DMSO 0, geranylgeraniol control 100;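 note: myotubes were challenged with 10 µM simvastatin during compound exposure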

Row | Compound | rescue of ATP level
1 | CCOc1ccc(C(C)C)cc1S(=O)(=O)n1nc(C)cc1C | inconclusive: 69.2%
2 | Cc1ccc(-c2nnn(CC(=O)N(CC(=O)NC3CCCC3)c3ccccc3F)n2)o1 | inconclusive: 77%
3 | CC(=O)c1ccc(-n2nnnc2SCC(=O)NC2CCCCC2)cc1 | inconclusive: 71.2%
4 | CCSc1cc(C)nc2c(-c3ccc(Cl)cc3)c(C)nn12 | active: 92.6%
5 | O=C(CC(c1ccccc1)c1cc(Br)ccc1O)NCc1ccco1 (configuration not stated) | inconclusive: 73.1%
6 | C[C@@H]1CN([C@H](C)CO)C(=O)c2cc(NC(=O)C3CCCCC3)ccc2O[C@H]1CN(C)Cc1ccc(Cl)c(Cl)c1 | inconclusive: 81%
7 | CCCc1cn(CC[C@@H]2CC[C@H](NC(=O)Nc3ccccc3F)[C@@H](CO)O2)nn1 | inactive: 0.605%
8 | O=C(C[C@@H]1CC[C@@H]2[C@H](COC[C@H](O)CN2Cc2ccc(C(F)(F)F)cc2)O1)NCCc1ccccc1 | inconclusive: 71.9%
9 | C[C@@H]1CN([C@H](C)CO)C(=O)Cc2cc(NS(=O)(=O)c3cccs3)ccc2O[C@@H]1CN(C)Cc1ccc(Cl)c(Cl)c1 | inconclusive: 65.2%
10 | C[C@H](CO)N1C[C@H](C)[C@@H](CN(C)S(=O)(=O)c2ccc(Cl)cc2)Oc2ccc(NC(=O)NC3CCCCC3)cc2CC1=O | inconclusive: 80.6%
11 | COc1ccc(C#Cc2cnc3c(c2)C(=O)N([C@H](C)CO)C[C@H](C)[C@H](CN(C)Cc2ccccc2)O3)cc1OC | inconclusive: 30.2%
12 | O=C(c1ccc([N+](=O)[O-])o1)N1CCN(c2nc3c(F)cc(F)cc3s2)CC1 | inconclusive: 66.5%
13 | COc1ccc(NC(=O)N(C)C[C@H]2Oc3c(NC(=O)Nc4cccc5ccccc45)cccc3C(=O)N([C@H](C)CO)C[C@H]2C)cc1 | inconclusive: 72.4%
14 | COc1ccc(C(=O)c2oc3ccccc3c2N)cc1 | inactive: 7.18%
15 | C[C@@H]1CN([C@H](C)CO)C(=O)c2cc(C3=CCCCC3)cnc2O[C@@H]1CN(C)C(=O)Nc1ccc(F)cc1 | inconclusive: 71.9%
16 | COCCCN1C(=O)N(c2ccc(F)cc2)C(=O)C1CC(=O)Nc1ccccc1 (configuration not stated) | inconclusive: 11.8%
17 | CC1CN(C(=O)CCCN2C(=O)c3ccccc3C2=O)CC(C)O1 (configuration not stated) | inactive: 4.22%
18 | COc1ccc(C(=O)OCC(=O)c2ccc3c(c2)NC(=O)CO3)cc1OC | inactive: -1.91%
19 | COc1cc2[nH]c3c(N4CCN(c5ccccn5)CC4)ncnc3c2cc1OC | inconclusive: 66.8%
20 | COc1cccc(-c2csc(N3CCN(S(=O)(=O)c4ccc(F)cc4)CC3)n2)c1 | inconclusive: 89.8%
21 | Cc1ccc(S(=O)(=O)Nc2ccc3c(c2)C(=O)N([C@H](C)CO)C[C@H](C)[C@@H](CN(C)Cc2ccc4c(c2)OCO4)OCCCC[C@H](C)O3)cc1 | inconclusive: 75.6%
22 | CCCCc1ccc(S(=O)(=O)NCCc2ccncc2)cc1 | active: 126%
23 | CCN1C(=O)C(C)S/C1=N\S(=O)(=O)c1ccc(Cl)s1 (configuration not stated) | active: 136%
24 | CN(C)/C=C1\N=C(c2cccnc2Oc2ccc(Cl)cc2)OC1=O | active: 115%

Row | Compound | rescue of ATP level
25 | C[C@@H]1CN([C@@H](C)CO)C(=O)Cc2cc(NC(=O)CCCCCC(=O)Nc3ccccc3N)ccc2O[C@H]1CN(C)Cc1ccccc1 | inconclusive: 65.7%
26 | Cc1c(C(=O)N2CCN(S(C)(=O)=O)CC2)oc2ccccc12 | inactive: 57%
27 | O=C(CSc1nnc(CNc2ccc(F)cc2)n1Cc1ccccc1)N1CCOCC1 | active: 102%
28 | COc1ccc2[nH]cc(CCN3C(=O)c4ccc(C(=O)O)cc4C3=O)c2c1 | inconclusive: 12.3%
29 | O=C(CCCOc1ccccc1)N1CCCCC1 | active: 94.3%
30 | COC(=O)[C@H]1[C@H](CO)[C@H]2Cn3c(ccc(C4=CCCCC4)c3=O)[C@H]2N1CC1CCCCC1 | inconclusive: 67%
31 | O=C(Nc1ccc2c(c1)[C@@H]1C[C@H](CC(=O)N3CCc4ccccc4C3)O[C@@H](CO)[C@@H]1O2)NC1CCCC1 | inactive: 7.07%
32 | C[C@H]1CN([C@@H](C)CO)C(=O)c2cc(NS(=O)(=O)c3ccccc3)ccc2O[C@@H]1CN(C)S(=O)(=O)c1cccs1 | inconclusive: 65.9%
33 | CCOc1ccc(C(=O)Nc2ccc(N3CCN(C)CC3)cc2)cc1Br | inconclusive: 71.6%
34 | N=c1sccn1CC(=O)Nc1cccc2ccccc12 | inconclusive: 72%
35 | CCCn1c(SCC(=O)NCc2ccc(C)cc2)n[nH]c1=O | inconclusive: 24.8%
36 | C[C@H]1CN([C@@H](C)CO)S(=O)(=O)c2ccc(-c3ccc(C(=O)N(C)C)cc3)cc2O[C@@H]1CN(C)C(=O)Cc1ccccn1 | inconclusive: 49.5%
37 | CC/C(O)=C(\C#N)c1nnc2n1CCCCC2 | active: 86.7%
38 | CC(C)CC#Cc1ccc2c(c1)O[C@@H](CN(C)Cc1cccnc1)[C@@H](C)CN([C@H](C)CO)S2(=O)=O | inactive: 8.55%
39 | CCOCCn1c(COc2ccccc2)nc2ccccc21 | active: 122%
40 | C[C@@H]1CN([C@H](C)CO)C(=O)Cc2cc(NS(=O)(=O)c3ccc(F)cc3)ccc2O[C@H]1CN(C)Cc1ccc(Oc2ccccc2)cc1 | inconclusive: 72.2%
41 | COc1ccc(N2CCN(CCCNC(=O)C3(S(=O)(=O)c4ccc(Cl)cc4)CC3)CC2)cc1 | inconclusive: 69.8%
42 | CCOC(=O)C(NC(=O)c1ccc(OC)cc1)(Nc1cc(C)on1)C(F)(F)F (configuration not stated) | inconclusive: 75.1%
43 | C[C@H]1CN([C@@H](C)CO)C(=O)Cc2cc(NC(=O)c3ccncc3)ccc2O[C@@H]1CN(C)C(=O)Nc1cccc2ccccc12 | inconclusive: 67.7%
44 | Cc1ccc(NC(=S)NC(=O)c2cccs2)cc1F | inactive: -24.1%
45 | C[C@H]1CN([C@@H](C)CO)C(=O)c2cccc(NC(=O)Nc3ccc(F)cc3)c2O[C@@H]1CN(C)CC1CCCCC1 | inconclusive: 68.8%
46 | O=C(c1ccc2c(c1)OCO2)N1C[C@H]2[C@@H](c3ccccc31)[C@H](CO)N2Cc1cccnc1 | inactive: -28.6%
47 | C[C@H]1CN([C@@H](C)CO)C(=O)c2cc(NS(=O)(=O)c3ccc(Cl)cc3)ccc2O[C@H]1CN(C)S(=O)(=O)c1ccc(Cl)cc1 | inconclusive: 66.4%
48 | CCCc1ccc(-c2csc(NC(=O)Cc3cccs3)n2)cc1 | inactive: 20.4%

Row | Compound | rescue of ATP level
49 | COc1ccc(N(CC(=O)NCCc2ccc(C)cc2)S(=O)(=O)c2c(C)noc2C)cc1 | inactive: 4.83%
50 | COc1ccc(CN(C)C[C@H]2OCCCC[C@H](C)Oc3ccc(NC(=O)NC(C)C)cc3C(=O)N([C@@H](C)CO)C[C@H]2C)cc1 | inconclusive: 68.3%
51 | O=C(O)CN(CCc1ccccc1)S(=O)(=O)c1ccccc1 | inconclusive: 66.7%
52 | CCOC(=O)N1CCN(C(=O)Cn2nc(C)c3sc4ccccc4c3c2=O)CC1 | active: 103%
53 | CCCC(=O)Nc1ccc2c(c1)C(=O)N(C)C[C@@H](OC)[C@@H](C)CN(CCC(F)(F)F)[C@H](C)CO2 | inactive: 6.52%
54 | C[C@@H]1CN([C@H](C)CO)C(=O)c2cc(NC(=O)Cc3cn(C)c4ccccc34)ccc2O[C@@H]1CN(C)Cc1ccc(C(=O)Nc2ccccc2N)cc1 | inconclusive: 71.4%
55 | O=C(COC(=O)CCCN1C(=O)c2ccccc2C1=O)Nc1ncc(Cl)cc1Cl | inconclusive: 67.3%
56 | C=CCn1c(C)cc(C(=O)CSc2nc3ccccc3c(=O)[nH]2)c1C | inactive: -23.4%
57 | Cc1cc(C)n2nc(SCC(=O)N(C(C)C)C(C)C)nc2n1 | inconclusive: 80.8%
58 | C[C@@H]1CN([C@H](C)CO)C(=O)c2cc(C3=CCCC3)cnc2O[C@@H]1CN(C)C(=O)CN1CCOCC1 | inactive: 12.1%
59 | C[C@H](CO)N1C[C@H](C)[C@H](CN(C)S(=O)(=O)c2cn(C)cn2)Oc2ncc(/C=C/c3ccccc3)cc2C1=O | inactive: 8.08% and inactive: 15.6%
60 | COc1ccc(S(=O)(=O)N(C)C[C@@H]2OCCCC[C@H](C)Oc3ccc(NC(=O)Nc4ccc(C(F)(F)F)cc4)cc3C(=O)N([C@@H](C)CO)C[C@@H]2C)cc1 | inconclusive: 77.4%
61 | C[C@H](CO)N1C[C@H](C)[C@H](CN(C)S(=O)(=O)c2ccc(F)cc2)Oc2ncc(C#Cc3cccc(F)c3)cc2C1=O | inconclusive: 77.7%
62 | COc1ccc2c(c1)c(C(=O)OCCN(C)C)c(C)n2C | active: 105%
63 | CCCNC(=O)N1CC[C@@H]2[C@H]1c1cc(-c3ccccc3)ccc1N(C)[C@H]2CO | inactive: 27.6%
64 | CCOc1ccc(C(=O)NCC(=O)N2CCN(c3ccccc3O)CC2)cc1 | inconclusive: 80%
65 | Cc1ccnc(N2C(=O)c3cccc4c([N+](=O)[O-])ccc(c34)C2=O)c1 | inconclusive: 82.9%
66 | CCOc1cccc(CNc2ccc(O)cc2)c1OCc1ccccc1Cl | active: 108%
67 | CN(C)C(=O)C[C@@H]1C=C[C@H](NC(=O)C2CCC2)[C@@H](CO)O1 | inactive: -17.5%
68 | O=C(O)CC12CC3CC(C1)CC(n1ncc(NCC4CCCO4)c(Cl)c1=O)(C3)C2 (configuration not stated) | inconclusive: 4.3%
69 | CCOc1ccc(Cc2nnc(SCC(=O)c3ccc(OC)cc3)o2)cc1 | inconclusive: 76%
70 | CSCCC(NS(=O)(=O)c1ccc(C)cc1)C(=O)N1CCN(C(c2ccccc2)c2ccccc2)CC1 (configuration not stated) | inconclusive: 65.2%
71 | C[C@@H](NC(=O)C[C@@H]1CC[C@@H]2[C@H](COC[C@H](O)CN2Cc2ccc(C(F)(F)F)cc2)O1)c1ccccc1 | inconclusive: 67.6%
72 | COc1cccc(-c2noc(C3CCCN(C(=O)Cc4ccccc4)C3)n2)c1 (configuration not stated) | inconclusive: 67.9%
